In paper PMC2993745 (Molecular Biology of the Cell, 2010):

Target: recombinant PLEKHM1 (FL) (human, UniProt Q9Y4G2)
Assay: pull-down

binding result: binds
B1: GST-Rab7 (natural protein)
chain: not shown
